Results taken from article PMC4336329 (PLoS ONE, 2015).
About 14,000 (4.5%) of roughly 310,000 compounds showed an effect of 50% or more. The effect is printed as a negative number. Some of the results follow.

Target: human ether-à-go-go-related gene (hERG) potassium channel (human, UniProt Q12809)
Experiment: primary screen, population patch clamp on CHO cells stably expressing hERG
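Note: peak tail current of the secondary pulse compared with the same well before compound.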

Sequence of human ether-à-go-go-related gene (hERG) potassium channel (Q12809 whole entry, looked up): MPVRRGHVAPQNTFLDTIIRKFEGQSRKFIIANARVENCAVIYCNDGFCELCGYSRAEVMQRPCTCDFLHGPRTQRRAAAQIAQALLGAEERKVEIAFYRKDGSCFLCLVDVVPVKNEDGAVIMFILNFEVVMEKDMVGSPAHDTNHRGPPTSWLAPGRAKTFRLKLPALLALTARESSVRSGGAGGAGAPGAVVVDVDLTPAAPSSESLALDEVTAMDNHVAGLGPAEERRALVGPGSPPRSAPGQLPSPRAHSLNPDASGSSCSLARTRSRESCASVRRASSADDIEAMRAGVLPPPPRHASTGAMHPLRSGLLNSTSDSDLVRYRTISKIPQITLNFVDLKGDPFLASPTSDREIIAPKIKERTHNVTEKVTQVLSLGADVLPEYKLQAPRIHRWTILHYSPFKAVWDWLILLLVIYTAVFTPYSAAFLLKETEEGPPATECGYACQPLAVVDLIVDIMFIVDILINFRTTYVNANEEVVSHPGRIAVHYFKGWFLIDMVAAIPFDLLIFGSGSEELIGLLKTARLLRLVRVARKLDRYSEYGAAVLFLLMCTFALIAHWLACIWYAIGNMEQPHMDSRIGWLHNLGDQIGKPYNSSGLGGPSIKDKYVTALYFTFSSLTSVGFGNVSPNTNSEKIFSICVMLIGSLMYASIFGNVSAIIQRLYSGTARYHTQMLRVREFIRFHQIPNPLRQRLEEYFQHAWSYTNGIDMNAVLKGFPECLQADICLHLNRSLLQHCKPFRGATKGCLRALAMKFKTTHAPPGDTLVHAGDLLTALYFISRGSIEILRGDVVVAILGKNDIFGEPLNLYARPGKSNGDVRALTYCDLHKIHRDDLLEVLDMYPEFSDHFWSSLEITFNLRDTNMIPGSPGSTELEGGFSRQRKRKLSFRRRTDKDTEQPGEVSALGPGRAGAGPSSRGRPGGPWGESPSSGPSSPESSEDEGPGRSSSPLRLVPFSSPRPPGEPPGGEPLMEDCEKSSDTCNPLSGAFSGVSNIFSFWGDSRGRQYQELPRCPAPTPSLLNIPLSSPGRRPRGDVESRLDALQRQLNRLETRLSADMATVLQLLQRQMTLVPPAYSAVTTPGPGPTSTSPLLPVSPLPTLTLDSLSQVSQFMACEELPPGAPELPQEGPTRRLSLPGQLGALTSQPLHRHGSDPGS

| SMILES | hERG current change (%, negative = inhibition) at 10uM [%] |
| --- | --- |
| COc1ccc(C(=O)Nc2ccccc2N2CCCCC2)cc1[N+](=O)[O-] | -7.54 |
| CCOC(=O)C/C(N)=N/NC(=O)c1ccc(Cl)cc1Cl | 39.1 |
| CC(OC(=O)C1=COCCO1)C(=O)Nc1ccc(Oc2ccccc2)cc1 (stereo not shown) | -5.61 |
| O=C(CSc1nnc(-c2cccs2)o1)OCc1ccccc1 | 8.91 |
| O=C(CSc1ccccc1)N1CCN(c2ccccc2)CC1 | -22.3 |
| Cc1ccc(OCC(=O)OCC(=O)NC2CC2)cc1C | 4.09 |
| COc1cc(OC)c(C(=O)COc2ncnc3ccccc23)c(OC)c1 | -1.26 |
| CC(=O)Nc1c(C)nn(C(C)=O)c1C | 16.4 |
| Brc1ccccc1-c1nnc(COc2ncnc3ccccc23)o1 | -8.52 |
| CC1(C)Cc2ccccc2-c2nc3n(c(=O)c21)CCCS3 | 12.8 |
| Cc1cc(C)cc(OCCNC(=O)c2cc(S(=O)(=O)N3CCOCC3)ccc2F)c1 | -30.2 |
| CC(=O)N1CCN(c2ccc(NC(=O)c3cccc(C)c3)cc2)CC1 | 18.5 |
| CS(=O)(=O)c1ccc(NCCc2ccc(S(N)(=O)=O)cc2)c([N+](=O)[O-])c1 | -10.6 |
| CCOC(=O)C1C(=O)NC(N2CCOCC2)=NC1C(C)C (stereo not shown) | 6.96 |
| Cc1cccc(N(CC(=O)NC2CCCCC2)C(=O)c2csnn2)c1 | 7.69 |
| CCCN1C(=O)c2ccc(C(=O)NC3=NCCS3)cc2C1=O | 10 |
| CCOc1ccccc1NC(=O)Nc1cc(S(=O)(=O)N(C)C)ccc1C | 15 |
| Cn1c(CN2CCOCC2)nc2cc(NC(=O)COc3ccc([N+](=O)[O-])cc3)ccc21 | -33.3 |
| CC(=O)c1c(C)n([O-])c2cc(C)ccc2[n+]1=O | -5.26 |
| Cn1c(=O)n(C)c(=O)n(CC(=O)N2CCCCC2)c1=O | -8.38 |
| CCc1ccc(CN2CCCC(CNS(=O)(=O)c3ccc(OC)cc3)C2)cc1 (stereo not shown) | -69.8 |
| COc1ccc(CC2S/C(=N/N=C/c3ccccc3O)NC2=O)cc1 (stereo not shown) | 17.2 |
| O=C(O)c1ccccc1CSc1nnnn1-c1ccccc1 | 12.6 |

| SMILES | hERG current change (%, negative = inhibition) at 10uM [%] |
| --- | --- |
| CCOC(=O)c1c(NC(=O)CC)sc(C(=O)NC2CCCC2)c1C | -15.6 |
| CN(c1ccccc1)c1nc(N)c([N+](=O)[O-])c(Nc2cccc(F)c2)n1 | 24 |
| Nc1nc(-c2ccco2)nn1S(=O)(=O)c1ccc(Cl)cc1 | 16.6 |
| Cc1ccc(/C=N/NC(=O)CC2N=C(Cc3ccccc3)NNC2=O)cc1 (stereo not shown) | 16.6 |
| CN(C)C(=O)Oc1ccc(-c2cn3cc(C(F)(F)F)ccc3n2)cc1 | -3.56 |
| CCN1CSC(=S)N(Cc2ccc(OC)cc2)C1 | 7.59 |
| CN(CC1CCCN(CCc2ccc(Cl)cc2)C1)C(=O)CC(F)(F)F (stereo not shown) | -60.5 |
| CN(C)S(=O)(=O)c1cccc(NC(=O)c2cnccn2)c1 | -11.2 |
| Cc1nc(N2CCN(S(=O)(=O)c3cccc4nonc34)CC2)c2c3c(sc2n1)CCCC3 | -1.38 |
| Cc1ccc(NC(=O)CN2C(=O)NC(C)(C3CC3)C2=O)c(C)c1 (stereo not shown) | 14.1 |
| CC(=O)c1ccc(NC(=S)NNC(=O)c2ccccc2[N+](=O)[O-])cc1 | 20 |
| Cc1nc2cc(NC(=O)N3CCC(c4ccccc4)C3)ccc2n1C (stereo not shown) | -52.4 |
| Cc1ccc(C(=O)NCCOc2cccc(C)c2)cc1 | 5.16 |
| CCc1ccc(N=c2c([N+](=O)[O-])nn(-c3ccc4c(c3)OCCO4)n2O)cc1 | 1.57 |
| Cc1ncc(CN2CCC(CO)(Cc3ccccc3)CC2)s1 | -7 |
| COc1ccc(NS(=O)(=O)c2ccc3nc(COc4ccc(C#N)cc4)[nH]c3c2)cc1 | -1.6 |
| O=C(COC(=O)CCSc1ccc(Cl)cc1)NCc1ccc(Cl)cc1 | 13.6 |
| CCOC(=O)c1c(NC(=O)CSc2nnc(CNc3ccc(F)cc3)o2)sc(C)c1C | 3.55 |
| CC1(C)Cc2cccc(OCC(=O)Nc3nccs3)c2O1 | 1.64 |
| COCCn1c(SCC(=O)N(C)c2ccccc2)nc2c([nH]c3ccccc32)c1=O | 9.36 |
| O=[N+]([O-])c1cccc(S(=O)(=O)NCC2CCCO2)c1 (stereo not shown) | 14.9 |
| O=C(N[C@@H](Cc1ccccc1)C(=O)NCCc1c[nH]c2ccccc12)c1ccco1 | -12.3 |
| S=c1[nH]nc(COc2cccc3ccccc23)n1Cc1ccccc1 | 13.8 |

| SMILES | hERG current change (%, negative = inhibition) at 10uM [%] |
| --- | --- |
| CCOc1cc(N2CCOCC2)c(OCC)cc1NC(=O)c1ccc2ccccc2n1 | 14.1 |
| CCOCCn1c(CCCO)nc2ccccc21 | 7.11 |
| COc1ccc(CNC(=O)CN(C(=O)CCC(=O)Nc2ccccn2)c2cccc(C)c2C)cc1 | 9.38 |
| Cc1nn(CC2CC2)c(=O)n1-c1ccccc1F | 6.94 |
| CCCn1c(=O)c(C(=O)Nc2ccccc2C)c(O)c2ccccc21 | 18.9 |
| CC(=O)c1cccc(NS(=O)(=O)c2cc3c(cc2C)NC(=O)CO3)c1 | -33.9 |
| N#Cc1c(/N=C/C2C(=O)NC(=S)NC2=O)sc2c1CCCC2 | 18.6 |
| COc1ccc(S(=O)(=O)N(C)CC(=O)NCc2ccco2)cc1 | -3.5 |
| O=C(CCCn1cnc([N+](=O)[O-])n1)Nc1cccc(Cl)c1Cl | -5.98 |
| CN1CCN(NC(=S)Nc2ccccc2)CC1 | 10.3 |
| C=CCN(C(=O)c1cccc(N2C(=O)C3CC=CC(C)C3C2=O)c1)c1ccccc1 (stereo not shown) | -0.677 |
| CCCCOC(=O)c1ccccc1C(=O)OCCCC | 5.68 |
| O=C(NCc1ccco1)C1Cc2cc(Cl)ccc2O1 (stereo not shown) | -5.25 |
| Cc1ccc2nc(-c3ccco3)c(Nc3ccccc3)n2c1 | 3.48 |
| COc1ccc(/C=C/C(=O)Nc2ccc(C)cc2)cc1S(=O)(=O)N1CCOCC1 | -32.6 |
| CC(C)NC(=O)C(=O)Nc1cc2c3c(c1)C(C)C(=O)N3CCC2 (stereo not shown) | 15.2 |
| Cc1ccccc1CSCCNC(=O)COc1ccc(Cl)cc1 | -9.54 |
| O=C(O)/C=C/C(=O)Nc1cccc2cccnc12 | 26.7 |
| Cc1ccccc1N1CCN(C2CCCN(C(=O)c3ccc(Cl)s3)C2)CC1 (stereo not shown) | -46.8 |
| CC(=O)Nc1ccc(S(=O)(=O)C(C#N)c2nc3ccccc3nc2NCCO)cc1 (stereo not shown) | 15.3 |
| CCCSc1nnc(N2C(=O)C(O)=C(C(=O)c3ccco3)C2c2ccccc2F)s1 (stereo not shown) | 8.86 |
| COc1ccc(CC(=O)NCCCc2ccccc2)cc1OC | 16.5 |
| O=C(CCn1nc(-c2ccc(Cl)cc2)c2ccccc2c1=O)Nc1cccnc1 | -40.8 |

| SMILES | hERG current change (%, negative = inhibition) at 10uM [%] |
| --- | --- |
| Cc1cc2cc(CNC(=O)c3cccc([N+](=O)[O-])c3)ccc2[nH]1 | -25.3 |
| Clc1ccc(C2=Nn3c(nnc3-c3n[nH]c4c3CCC4)SC2)cc1 | -3.84 |
| COc1ccc(N2CCN(C(=O)CC(NC(N)=O)c3cccc(Oc4ccccc4)c3)CC2)cc1 (stereo not shown) | -7.97 |
| C=CCn1c(=N)c(C#N)cc2c(=O)n3ccccc3nc21 | -35.3 |
| Cn1nc(C(F)(F)F)c2cc(C(=O)Nc3ccc(F)c(Cl)c3)sc21 | 10.8 |
| CC1=NN(c2ccccc2)C(=O)/C1=C\C=C1\N(C)c2ccccc2C1(C)C | -13.4 |
| COc1ccc(-c2cc(C(=O)N3CCCC3)no2)cc1 | 3.83 |
| Cc1nc2c(ccc3nc(NC(=O)Cc4ccccc4)sc32)s1 | 3.76 |
| CCNS(=O)(=O)c1ccc(CCC(N)=O)cc1 | 23.5 |
| CCN(CC)C(=O)CCSc1nnc(-c2ccco2)o1 | 10.9 |
| CC1CCCC(NC(=O)CSc2nnnn2C)C1C (stereo not shown) | 2.1 |
| O=C(C1CCN(C2CC(=O)N(c3ccc(Cl)cc3)C2=O)CC1)N1CCOCC1 (stereo not shown) | -0.546 |
| NC(=O)C1CCN(CC(=O)NC(=O)NC2CCCC2)CC1 | 9.34 |
| NC(=O)NCC(=O)N1CCC(C(O)(c2ccccc2)c2ccccc2)CC1 | -2.68 |
| Cc1cccc(OCC(=O)N(Cc2ccc(C)o2)C2CCS(=O)(=O)C2)c1 (stereo not shown) | -42.6 |
| COC(=O)CN1C(=O)C(O)(CC(=O)c2ccccc2)c2ccccc21 (stereo not shown) | 16.7 |
| CC(=O)Nc1c(O)nc(SCC(=O)N2CCN(c3ccc(F)cc3)CC2)[nH]c1=O | -4.9 |
| CCCCOC(=O)CSC1=C(C#N)C(c2ccc3c(c2)OCO3)CC(=O)N1 (stereo not shown) | -1.9 |
| O=C(CSCc1ccc(C(=O)O)cc1)Nc1ccc2ccccc2c1 | 13.5 |
| CC(C)CNc1cc(Cl)c(S(=O)(=O)NCC(C)C)cc1C(=O)O | 6.44 |
| CCCc1cc(NCCCCO)n2c(nc3ccccc32)c1C#N | -53.1 |
| O=C(NNS(=O)(=O)c1ccccc1[N+](=O)[O-])c1ccc(O)cc1 | -8.85 |
